Test results taken from the supplement of paper PMC11417369.
This is one part of the list.

These sequences were tested on PfSIP2 AP2 domain 1 (GST-tagged) (assay: gcPBM binding intensity (ln(normalized median fluorescence intensity)); higher = stronger DNA binding).
Outline: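 GST-tagged P. falciparum DNA-binding domains produced in E. coli were incubated for 1 h on an Agilent 4 × 180k array of primer-extended double-stranded 36-bp intergenic genomic probes with negative controls. Binding intensity is the highest Masliner-normalised natural-log median intensity across replicate spots of either probe orientation, with bound protein detected by Alexa488 anti-GST antibody at 488 nm.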

Sequence | gcPBM binding intensity (ln)
TATATTTTATATATGGTGCAACTTTTATTTAAATAA | 10.6
TTACAAGTAAAAGGTACACACATTATAAATACAAAT [CACACA_site4752] | 7.15
AAAATTAAACTCACACCACACACAAAAAAAAAAAAA [CACACA_site8131] | 6.91
AAGAAAGACATTACGTGTACCAAACAACCTACCAAC [XGTACX_site4219] | 7.07
ATGTATATGTCTATATGTACTTATATTTTATTTTTT [XGTACX_site5902] | 6.95
TGTTTTATCTTATATGCACACGATAAAAAAAAAAAA [CACACA_site2674] | 8.21
AAAAAAAAAAAAATCACACATAATATAGAATATGTA [CACACA_site4993] | 6.9
ATATATATATATATAACACACGCAAAAAAATTAAAT [CACACA_site8395] | 9.57
AACTTAAAAAATAAATGTACATAAATATAAACATAT [XGTACX_site2987] | 7.04
TATTTAAATTTTAAGTGTACATATTTATTTATATCT [XGTACX_site6545] | 7.09
TCACTATAATAATTTACACACATTTTAAGAAAATGT [CACACA_site3530] | 7
AAAATGAATAAAAATACACACATATCTGTTATTCTC [CACACA_site5474] | 6.76
GAATATTAATTCATACGTACTTATATATAAGTATAT [XGTACX_site3707] | 7.09
TATAAAAATGGGCACACACACACATATATATATTTA [CACACA_site1527] | 7
ATTTTTTTTTTTTTTTTTTTTTTATTCTTGTAATCT [CACACA_negctrl_site1039] | 6.77
CCTTTTTATCTTTTTGTGCACAGACCTTTTTTAAAT | 9.75
ATGTAAGTTGTGCATTCACACACATATATATATATA [CACACA_site9086] | 9.26
ATATAATAATAAAGACGTACAAATGTATATATATAC [XGTACX_site3123] | 7.07
AAAAAAAAAAAAAACATACACACAATAAAATAGGGG [CACACA_site2398] | 7.49
CATTTTTTATTTCCTTGTACGAATAAAATATATTTA [XGTACX_site6844] | 7.13
AATTTAATATAATGCACACATAAAACAAAAACAAAA [CACACA_site529] | 7.62
TACGTAAATGTGTGTGTGCACGTTATATATTAATAT [GTGCAC_site9976] | 9.21

Sequence | gcPBM binding intensity (ln)
TATTATCGTTCTCATACACACAAAATATACATACAC [CACACA_site2643] | 7.37
TTATAATAATATAATACATGCATATATATTTAAATA [TGCATGCA_site903] | 6.9
ATAAACATATAAAAAGTGCATATTCATATATCTACT | 8.7
ATGGCCTCATTTGGGACACACAACATAAAATATATA [CACACA_site753] | 6.88
AATACACTAAACAAAAGTACAAAAATATTCTACAAA [XGTACX_site5162] | 6.95
AAATATATTTTATGTACACACAAAATTAAGGGATAT [CACACA_site4881] | 7.36
TGTTAATTATAAATTTGTACTTATTTTTACAAAATA [XGTACX_site6598] | 6.97
GTAAAATATATAAAATGTACATATATTATATATATA [XGTACX_site489] | 7.96
CATTTAAAAGATAAAACACACATACTAATAAAAAAC [CACACA_site5417] | 7.24
TTTCTTTATTAAAATATTTTACATATATAATATACG [TGCATGCA_negctrl_site564] | 7.21
ACATATATTATTATATGTACATATATTAATTATATA [XGTACX_site3400] | 7.28
ATCATTTTTAAAGGAACACACAAAAAAAATTAAAAT [CACACA_site4878] | 7
ACTCTCTTATATTAAACACACATATATATCTGTATA [CACACA_site5489] | 7.4
CTTCTCTTTTTTATCATGCACTTTTTGTATAATAAT [GTGCAC_site9834] | 8.7
ATTTATATGTGGAGCAGTACGCACTCTCACAATTAA [XGTACX_site7252] | 8.2
TAAAAATTATATATCACACATATATGTCAGTATACA [CACACA_site4624] | 6.91
GATGTTCATCACTACACACACAAAGAAATATATATA [CACACA_site2684] | 7.38
AAAGAAAAAAAATATAAAAAATAAAAAATAAAACAA [CACACA_negctrl_site374] | 6.81
TTGTATTTCCTTAGGAGTACACATAAATAAGTAAAT [XGTACX_site6677] | 7.42
TAATATATGTATATATGTACATATAAATGTTATAGA [XGTACX_site2721] | 7.05
TTGGTATAAAATTATAGTACATAAGGTAAATATAAA [XGTACX_site4698] | 7.09
GAAAAGCATAGATGCACACATATATATATATATATA [CACACA_site2169] | 9.6

Sequence | gcPBM binding intensity (ln)
GTGTTAATTTTAAATTGTACAAAATTTATATGATTT [XGTACX_site348] | 7.19
ATATACTTTTTTTTTTTTTTTTTAACGTTATTTATG [CACACA_negctrl_site1277] | 6.91
AAAATATATGAAAACAGTACATATAAAAATTAAAAA [XGTACX_site2594] | 6.88
TTACACATATATATAAATATATATAAATATATATAT [CACACA_negctrl_site150] | 8.19
ATTTTTATACGTTTTTTTTTTTTTTTTTTTTATTTA [CACACA_negctrl_site1142] | 6.71
ATTAATTTTGGTTCATGTACATAAGAAATAAACTCT [XGTACX_site4534] | 7.23
TATTTGTTTGAATTTTTTTTTTTTTTTTTTTATGTG [CACACA_negctrl_site966] | 6.78
TACAGACAGAAATGCACACACATATATATATATATA [CACACA_site2283] | 9.26
TTTATATTTCAATTTTGTGCTTCGCAAATTGAGAGG [TGCATGCA_negctrl_site327] | 6.77
CACTACATTATGTCATAAATGCATACATAAACATAT [GTGCAC_negctrl_site513] | 7.2
TATAACATAATATAGACACACACATGTACTTATGCC [CACACA_site8547] | 7.08
AATGTTTTTTTTTTTTTTTTTTTTTATTTATTGTTA [CACACA_negctrl_site505] | 6.85
ATCAAATAATAGCAAACACACAAAAAATAAAAAAAA [CACACA_site4146] | 6.91
ATTTTTTGGAAAAGAAGTACAATGGATTTATACGTT [XGTACX_site891] | 7.23
TAACATATAATATTATGTACATATATACATATATAA [XGTACX_site7467] | 7.02
AAAAAATCACGACACACACACACACTAAAAAAAAAA [CACACA_site6792] | 7.18
TTTAAATAATCTAGGTGTACTTTCCTTTATAAATGT [XGTACX_site7859] | 6.9
AGAATACATATATGAACACACAGAGTTTTAAAAAAT [CACACA_site2735] | 6.88
TATTTCAATATATACCTTTGCTTTTTTAATATACTT [XGTACX_negctrl_site556] | 6.96
AATATAAATAAAAACACACACAATGGTACCTATATA [CACACA_site7688] | 7.02
TCAATATAAATTAGTTGTACAGTTTTTTTTAATTAT [XGTACX_site6358] | 6.95
AAGAATTATATATTCACACAAAAAAAAAGTAAAAGA [CACACA_site5335] | 7.17

Sequence | gcPBM binding intensity (ln)
TATAATATATATATATGTACATATTATTTACATATA [XGTACX_site7312] | 7.29
TTTTAACATAGAAGTACACACATATAATCAATCATA [CACACA_site5313] | 7.17
AAAAAAAAAAAAAAGAGTACATTTATTTATATATCT [XGTACX_site2381] | 7.16
TGTTTAACACATGTTTCAAACAAAAAAAAAAAGACA [CACACA_negctrl_site1356] | 7.08
AATATATTAAATCTTACACACTAAAAAATATGTAAC [CACACA_site4325] | 6.83
TTTTAAATTTTTTAAAGTACACGTCGAAAAGGTATA [XGTACX_site76] | 7.93
TTAATTTTTGAAGGTACACACTAATATATTAAATAT [CACACA_site4791] | 7.11
CTTTTAATTATAAAATGTACTTAAAAATAATAATAC [XGTACX_site635] | 7.16
AAAACAGACAAACACACACACACATATATATATATA [CACACA_site3393] | 9.42
TTATCCCCCTATCATTGTACATTAATACAAACTAAA [XGTACX_site5630] | 8.01
AAAATGAAACAAATATGTACACATATAAATATTTCC [XGTACX_site54] | 7.05
TTTTATGAAAAATGGCTTATCTGTAAAGAAGTGGAG [CACACA_negctrl_site1586] | 7.5
ATAAAGAAAATATGGAGTACATTTATATCCAATATA [XGTACX_site3085] | 7.2
ATATTTGTAATTATTAAACACACACTAATTATATAT [CACACA_site8803] | 6.99
AAATATATACTACCGATGCACTAAATATAAACACAT [GTGCAC_site9777] | 8.08
TTATCATTTGGACACGCACACACACCGAAAAAGAAA [CACACA_site8008] | 7.57
TTTTTGTAATTATATTAATATATATATATATATATA [CACACA_negctrl_site198] | 8.96
TTTTTTGCTAAAAAGAGTACTAATAAAAAATTTATT [XGTACX_site5235] | 7.06
AATAATTTAAGGAATACACACAAGAAAAAAATAAGA [CACACA_site60] | 7.16
GAAAACATTAAAAGTTAGATCATAAGAAAAGAATAT [GTGCAC_negctrl_site726] | 7
ACATTATATAAAATATGTACATATAAAAAATTCTAT [XGTACX_site1617] | 7.08
GTTCATCACATATACACATGCATATTCTAATATGTA [TGCATGCA_site809] | 7.33
